Article PMC4336329 (PLoS ONE, 2015)
Among all 310,000 compounds or so, about 2,200 (0.71%) showed an effect of 50% or more. The effect is printed as a negative number. The list shows a part of the results.

What follows are molecules tested against human ether-à-go-go-related gene (hERG) potassium channel (human, UniProt Q12809) (assay: primary screen, population patch clamp on CHO cells stably expressing hERG).
human ether-à-go-go-related gene (hERG) potassium channel, sequence (Q12809 whole entry, looked up): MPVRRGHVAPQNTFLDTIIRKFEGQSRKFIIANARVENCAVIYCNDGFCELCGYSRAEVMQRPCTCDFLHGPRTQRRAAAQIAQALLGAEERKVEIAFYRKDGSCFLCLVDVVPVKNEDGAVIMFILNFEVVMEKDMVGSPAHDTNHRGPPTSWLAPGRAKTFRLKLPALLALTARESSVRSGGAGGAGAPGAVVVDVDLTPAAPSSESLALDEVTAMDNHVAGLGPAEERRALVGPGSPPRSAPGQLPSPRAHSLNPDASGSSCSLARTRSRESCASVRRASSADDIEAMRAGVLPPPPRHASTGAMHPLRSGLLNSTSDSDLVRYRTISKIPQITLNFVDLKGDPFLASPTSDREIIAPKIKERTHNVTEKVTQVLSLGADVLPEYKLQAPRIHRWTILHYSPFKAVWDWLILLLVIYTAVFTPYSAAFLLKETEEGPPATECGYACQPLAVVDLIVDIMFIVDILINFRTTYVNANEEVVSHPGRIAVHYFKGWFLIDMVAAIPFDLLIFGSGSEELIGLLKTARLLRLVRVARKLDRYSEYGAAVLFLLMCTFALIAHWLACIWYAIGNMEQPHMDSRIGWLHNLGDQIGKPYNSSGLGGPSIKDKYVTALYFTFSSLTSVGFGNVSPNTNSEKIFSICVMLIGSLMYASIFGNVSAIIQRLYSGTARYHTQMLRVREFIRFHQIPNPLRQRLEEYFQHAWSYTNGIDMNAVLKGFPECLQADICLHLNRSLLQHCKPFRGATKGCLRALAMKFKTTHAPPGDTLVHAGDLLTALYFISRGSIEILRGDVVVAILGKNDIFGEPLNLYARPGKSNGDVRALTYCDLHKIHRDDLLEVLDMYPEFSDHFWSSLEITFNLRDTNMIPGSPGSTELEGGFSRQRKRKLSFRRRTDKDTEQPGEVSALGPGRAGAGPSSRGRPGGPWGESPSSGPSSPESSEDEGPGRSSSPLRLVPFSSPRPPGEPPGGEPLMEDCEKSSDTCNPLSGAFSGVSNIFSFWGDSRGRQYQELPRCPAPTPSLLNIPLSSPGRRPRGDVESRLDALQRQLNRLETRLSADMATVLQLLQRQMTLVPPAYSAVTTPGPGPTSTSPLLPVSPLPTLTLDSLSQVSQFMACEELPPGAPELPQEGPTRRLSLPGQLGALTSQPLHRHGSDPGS
In the case of `CS(=O)(=O)c1cccc(-c2nnc(NC(=O)C3=COCCO3)o2)c1`, the “hERG current change (%, negative = inhibition) at 1uM” value is reported as 0.983%. With `O=C(NCc1ccc(F)cc1)C(c1ccccc1)N(C(=O)c1csnn1)C1CCCC1` (centres unmarked) the “hERG current change (%, negative = inhibition) at 1uM” value was 10.1%. For `O=C(CN1C(=O)CNC1=O)Nc1cccc(C(F)(F)F)c1`, the “hERG current change (%, negative = inhibition) at 1uM” value was 15.1%. `O=C(CSCc1ccccc1)NNC(=S)Nc1cccc(Cl)c1Cl` was tested, and the “hERG current change (%, negative = inhibition) at 1uM” value was 2.19%. With `Cl.Clc1ccc(CSC2=NCCCN2)cc1Cl` the “hERG current change (%, negative = inhibition) at 1uM” value was 3.8%. For `CS(=O)(=O)N1N=C(c2ccccc2)CC1c1cccs1` (centres unmarked), the “hERG current change (%, negative = inhibition) at 1uM” value was 13.4%. For `Cc1c(Cl)c([N+](=O)[O-])nn1CC(=O)N1CCCc2ccccc21`, the “hERG current change (%, negative = inhibition) at 1uM” value was 24.8%. `Cc1ncc(CN2CCN(Cc3ccc(F)cc3)C(CCO)C2)s1` (centres unmarked) was tested, and the “hERG current change (%, negative = inhibition) at 1uM” value was 28%. For `COCCCNC(=O)CS(=O)Cc1nc(-c2ccccc2C)oc1C` (centres unmarked), the “hERG current change (%, negative = inhibition) at 1uM” value was 1.15%. With `O=C(NNC(=O)c1cccs1)c1cccnc1` the “hERG current change (%, negative = inhibition) at 1uM” value was 10%. `O=C(CN1C(=O)COc2ccccc21)N(CCCN1CCOCC1)CC1CC=CCC1` (centres unmarked) was tested, and the “hERG current change (%, negative = inhibition) at 1uM” value was 4.77%. For `O=C(NCc1ccco1)C(c1cccs1)N(C(=O)C1COc2ccccc2O1)c1cccc(O)c1` (centres unmarked), the “hERG current change (%, negative = inhibition) at 1uM” value was -3.63%. `Cc1ccc(CN2CCN(CC(C)C)C(CCO)C2)s1` (centres unmarked) was tested, and the “hERG current change (%, negative = inhibition) at 1uM” value was 2.88%. In the case of `C[C@@H]1CCC2[C@](C)(CO)[C@@H](O)CC[C@]2(C)[C@@]12CCC(CO)(CCO)O2` (some centres unmarked), the “hERG current change (%, negative = inhibition) at 1uM” value is reported as 33.2%. In the case of `COc1ccc(/C=C(/NC(=O)c2ccccc2Cl)C(=O)NCCCC(=O)O)cc1`, the “hERG current change (%, negative = inhibition) at 1uM” value is reported as 17.7%. `CCn1c(Cc2ccccc2)nnc1SCC(=O)c1c(N)n(C2CC2)c(=O)[nH]c1=O` was tested, and the “hERG current change (%, negative = inhibition) at 1uM” value was -5.82%. In the case of `COc1cc(NC2c3ccccc3C(=O)N2c2ccc(C)cn2)cc(OC)c1OC` (centres unmarked), the “hERG current change (%, negative = inhibition) at 1uM” value is reported as -6.43%. In the case of `Br.C=CCn1c(=N)n(CC(=O)c2cccc([N+](=O)[O-])c2)c2ccccc21`, the “hERG current change (%, negative = inhibition) at 1uM” value is reported as -22.6%. For `Nc1nc(CCl)nc(Nc2ccccc2)n1`, the “hERG current change (%, negative = inhibition) at 1uM” value was 17.8%. `COc1cccc(C(=O)NCCSc2ccc(F)cc2)c1` was tested, and the “hERG current change (%, negative = inhibition) at 1uM” value was 13.4%. In the case of `O=C(CSCc1c(Cl)cccc1Cl)Nc1cccnc1`, the “hERG current change (%, negative = inhibition) at 1uM” value is reported as 0.202%. With `COc1cc(C)c(Cl)c(C)c1S(=O)(=O)NCc1ccc2c(c1)OCO2` the “hERG current change (%, negative = inhibition) at 1uM” value was 11.5%. In the case of `O=C(O)c1cncc(C#Cc2ccccc2)c1`, the “hERG current change (%, negative = inhibition) at 1uM” value is reported as 14.4%. In the case of `COc1ccc(/C=N/Nc2ccc(C(=O)O)cc2)cc1Br`, the “hERG current change (%, negative = inhibition) at 1uM” value is reported as 14.2%. With `CSc1ccccc1NC(=O)COC(=O)CSc1ccc(C)cc1` the “hERG current change (%, negative = inhibition) at 1uM” value was 8.78%. With `O=C1C(C2=NC(c3ccccn3)C3C(=O)N(c4ccccc4)C(=O)C23)=C(O)c2ccccc21` (centres unmarked) the “hERG current change (%, negative = inhibition) at 1uM” value was 6.22%. For `Cc1cccc(-c2cc(C(=O)NCc3ccccn3)c3ccccc3n2)c1`, the “hERG current change (%, negative = inhibition) at 1uM” value was 8.69%. For `CCC1CN(C(=O)NCc2ccc(C)cc2)c2ccccc2O1` (centres unmarked), the “hERG current change (%, negative = inhibition) at 1uM” value was 20.8%. With `COc1cccc(CNC(=O)CCS(=O)(=O)c2cccc3nonc23)c1` the “hERG current change (%, negative = inhibition) at 1uM” value was 15%. With `COc1ccc(NC(=O)CCNS(=O)(=O)c2cccc(C(C)=O)c2)cc1S(N)(=O)=O` the “hERG current change (%, negative = inhibition) at 1uM” value was 11.8%. In the case of `COC(=O)C1=C(c2ccc(C(C)=O)cc2)C[C@@H]2CC[C@H]1N2C`, the “hERG current change (%, negative = inhibition) at 1uM” value is reported as 5.94%. In the case of `CC(=O)N1CCN(C(=O)COc2ccc(Br)cc2)CC1`, the “hERG current change (%, negative = inhibition) at 1uM” value is reported as 3.21%. For `CC1=C(C(=O)Nc2ccc(C)cc2C)C(c2ccc(Cl)cc2)n2nc(C(=O)OC(C)C)nc2N1` (centres unmarked), the “hERG current change (%, negative = inhibition) at 1uM” value was 11.9%. `CC1CCc2sc3ncnc(N4CCN(CCO)CC4)c3c2C1` (centres unmarked) was tested, and the “hERG current change (%, negative = inhibition) at 1uM” value was -0.367%. With `COc1cccc(NC(=O)N2CCCC2C(=O)Nc2cc(C)ccc2OC)c1` (centres unmarked) the “hERG current change (%, negative = inhibition) at 1uM” value was 11.6%. `CSc1nc2ccc(NC(=O)C3=NNC(=O)CC3)cc2s1` was tested, and the “hERG current change (%, negative = inhibition) at 1uM” value was 16.1%. For `O=C(CCCN1C(=O)c2ccccc2C1=O)NCCc1ccc(OC(F)F)cc1`, the “hERG current change (%, negative = inhibition) at 1uM” value was -29.4%. In the case of `O=c1[nH]c(=S)[nH]c2nc(-c3cccs3)cc(C(F)(F)F)c12`, the “hERG current change (%, negative = inhibition) at 1uM” value is reported as 15.4%. With `CCCSc1ccc(C(=O)Nc2ccc(F)cc2F)cn1` the “hERG current change (%, negative = inhibition) at 1uM” value was 5.11%. With `CC(=O)c1ccc(OCC(O)CN2CCN(S(=O)(=O)c3c(C)c(C)cc(C)c3C)CC2)cc1` (centres unmarked) the “hERG current change (%, negative = inhibition) at 1uM” value was 17%. `O=C(Nc1ccc(F)cc1)N(CCCN1CCOCC1)Cc1cc2cc3c(cc2[nH]c1=O)OCCO3` was tested, and the “hERG current change (%, negative = inhibition) at 1uM” value was 9.34%. `COc1cccc(C(=O)Nc2nnc(C(C)C)s2)c1` was tested, and the “hERG current change (%, negative = inhibition) at 1uM” value was 10.3%. `COc1cc(/C=C/c2c([N+](=O)[O-])c(=O)n(C)c(=O)n2C)cc(OC)c1OC` was tested, and the “hERG current change (%, negative = inhibition) at 1uM” value was 5.97%. With `CC(=O)c1ccc(NC(=O)C(=O)c2cn(CC(=O)N3CCCCC3)c3ccccc23)cc1` the “hERG current change (%, negative = inhibition) at 1uM” value was 12.8%.
